Consider 86 sequences from the supplement of paper PMC3334620.

The full ranking holds about 33,000 sequences; the median of “E-score (-0.5 to 0.5)” is about -0.011, and the highest 2% start at about 0.28. The list shows a part of the results.

The assay concerns the target T1, Gcr1 (UniProt P07261).
T1 sequence: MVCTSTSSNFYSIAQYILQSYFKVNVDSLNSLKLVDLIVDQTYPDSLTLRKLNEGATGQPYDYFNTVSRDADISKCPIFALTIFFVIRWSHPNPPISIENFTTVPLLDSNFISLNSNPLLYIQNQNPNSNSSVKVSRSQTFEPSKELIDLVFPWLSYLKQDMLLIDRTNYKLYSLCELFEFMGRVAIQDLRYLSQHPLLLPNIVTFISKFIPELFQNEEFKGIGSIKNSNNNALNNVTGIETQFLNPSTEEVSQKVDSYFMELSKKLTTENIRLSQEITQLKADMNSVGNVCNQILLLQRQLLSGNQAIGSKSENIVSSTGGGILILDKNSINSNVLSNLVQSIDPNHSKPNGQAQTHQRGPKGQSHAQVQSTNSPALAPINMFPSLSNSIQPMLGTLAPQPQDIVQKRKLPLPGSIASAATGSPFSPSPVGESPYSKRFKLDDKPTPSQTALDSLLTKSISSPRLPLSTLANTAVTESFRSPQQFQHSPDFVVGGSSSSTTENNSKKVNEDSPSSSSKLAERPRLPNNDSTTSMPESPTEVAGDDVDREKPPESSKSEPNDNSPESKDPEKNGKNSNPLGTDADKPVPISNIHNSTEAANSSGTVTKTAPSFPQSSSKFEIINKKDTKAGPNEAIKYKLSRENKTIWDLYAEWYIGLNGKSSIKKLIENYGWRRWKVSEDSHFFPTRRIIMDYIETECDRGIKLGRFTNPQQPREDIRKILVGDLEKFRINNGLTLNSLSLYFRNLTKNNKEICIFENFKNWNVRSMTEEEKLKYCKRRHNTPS
Nature of the assay: PBM E-score (8-mer binding enrichment) (E-score (-0.5 to 0.5)); higher = stronger / more preferred TF binding; most listed sequences are background and not binding sites. To be noted: protein concentration: 100 nM; construct: GST-full length. Put shortly:
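Universal all-10-mer Agilent arrays, double-stranded by primer extension on fresh or once-stripped slides, were probed with about 100-200 nM GST-tagged yeast transcription factors made by PURExpress. Fluorescent anti-GST detected bound protein, and masliner normalised the scans. E-scores from the Universal PBM Analysis Suite were given to each ungapped eight-base word pooled with its reverse complement.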
For the sequence GAGTATAC, the “PBM E-score” value was -0.0865.
For CTTTAAAA the value was -0.048; for AATCTGAG, 0.072; for CGTAAGTC, -0.109.
To ACCATTCG belongs 0.068.
To ATTGCAAA belongs 0.0574.
With GGGAAAAC, the “PBM E-score” value is -0.101.
To GACTGTCC belongs -0.247.
Regarding CAAGCTTA, the “PBM E-score” value was -0.263.
For the sequence GCCGGCCC, the “PBM E-score” value is -0.151.
With CAATCAGG, the “PBM E-score” value was 0.0953.
For TATGACAA the value was 0.00222; for CGGTTAGC, -0.0704; for CGTTAATA, 0.171.
As for ATTAAGTA, the “PBM E-score” value was -0.0148.
To GGGACAAC belongs -0.0636.
Turning to GCCGCCGA, the “PBM E-score” value was determined as 0.0471.
For ATTCACGA the value was -0.0123; for AGGGATAA, -0.0814; for GACCCTGC, -0.0674.
Take CGGTAGGA: the “PBM E-score” value turned out to be 0.0143.
Consider AGGCAAAG, for which the “PBM E-score” value is -0.122.
To AATGGAGA belongs 0.0304.
To ACTAGTCT belongs 0.0634; to ATTTGTTG, 0.0123.
For TAAACATA the value was 0.138; for CCGGTCGA, -0.0987; for AAACATAA, 0.0996.
Take ATAATCCA: the “PBM E-score” value amounted to 0.0929.
To ATAGGGAG belongs -0.0215; to GGGTACGA, 0.0347; to ATCTACAT, 0.0423.
Regarding CCCACTTC, the “PBM E-score” value was 0.276.
To ATATCCAG belongs 0.156; to AGGGCGTA, -0.00036; to CGTGCCGA, -0.0978.
For ATCCTACG the value was -0.00941; for TACAAGTA, 0.123; for GCACCGGC, -0.0966.
Regarding AGGGCAAT, the “PBM E-score” value was -0.141.
For AAGGCGGC the value was -0.0016; for AAGGAAAA, -0.11.
For the sequence CCAGTATC, the “PBM E-score” value was determined as 0.245.
For CGATCCTA the value was 0.00296; for AGGGAACC, 0.203.
To GAGCTCGC belongs -0.155; to GAGTGTAA, -0.0829; to ACAACGCG, 0.0662.
For GGCTAGCA the value was -0.0895.
With CCCGTGCG, the “PBM E-score” value was -0.0483.
For CATGACCA the value was -0.0378; for ATAATCAT, 0.194; for ACCAGATC, 0.245.
For CCTTGAGA the value was -0.162.
As for CTATGCGA, the “PBM E-score” value is -0.14.
For the sequence AGGGTAAA, the “PBM E-score” value was -0.106.
For CCAATCAA, the “PBM E-score” value worked out at 0.124.
For AACATATG the value was -0.0382.
To AACTTAAT belongs 0.0317.
To ACATAGTA belongs 0.0983; to CTGAGGAC, 0.0367.
In the case of GGTGTCGA, the “PBM E-score” value is -0.202.
Take ACATCTGC: the “PBM E-score” value worked out at 0.0387.
For ACCTACCT the value was -0.0768.
To ATGACGCC belongs -0.0323; to AAATATGA, 0.123; to ATCGAACG, -0.0939.
For AAGCACCC the value was 0.283; for CCGAATTA, 0.178.
Turning to CACGGTTC, the “PBM E-score” value was -0.167.
For GATCGTCC the value was 0.0312; for ACTACGTC, -0.0471; for ATATCTTC, -0.00707.
To GAATGGGA belongs 0.231; to CTTGCCCC, -0.0693.
To CATAATCC belongs -0.00216; to AGAACAGG, 0.122.
Regarding TTGTTAAA, the “PBM E-score” value is -0.00461.
For GCGCAGTA, the “PBM E-score” value is -0.18.
For TACGAACA the value was 0.0261; for CAAATTGA, -0.0434; for AAGCTGCA, -0.0206.
With AAGCCTCT, the “PBM E-score” value was 0.0523.
To AAGGTGAG belongs -0.105; to AAAAACTG, -0.0509.
To GAGGCTAA belongs -0.0285.
